51 compounds from publication PMC6919601, “Identification of Plasmodium dipeptidyl aminopeptidase allosteric inhibitors by high throughput screening” (PLoS ONE, 2019) can be followed below.

Hit rate of the full screen: of about 110,000 compounds, about 230 (0.21%) showed an effect of 50% or more. Some of the results follow.
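Further: 30 min substrate incubation versus DMSO and 10 µM JCP410 controls.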

In this assay the target is DPAP1 (Plasmodium falciparum, UniProt Q8IIJ9). The experiment in a line: primary screen, percent inhibition; read by cleavage of a fluorogenic dipeptide substrate; higher = more effect of the substance. Also noted: species or system P. falciparum D10 trophozoite lysates; single well.
Sequence of DPAP1 (Q8IIJ9 whole entry, looked up): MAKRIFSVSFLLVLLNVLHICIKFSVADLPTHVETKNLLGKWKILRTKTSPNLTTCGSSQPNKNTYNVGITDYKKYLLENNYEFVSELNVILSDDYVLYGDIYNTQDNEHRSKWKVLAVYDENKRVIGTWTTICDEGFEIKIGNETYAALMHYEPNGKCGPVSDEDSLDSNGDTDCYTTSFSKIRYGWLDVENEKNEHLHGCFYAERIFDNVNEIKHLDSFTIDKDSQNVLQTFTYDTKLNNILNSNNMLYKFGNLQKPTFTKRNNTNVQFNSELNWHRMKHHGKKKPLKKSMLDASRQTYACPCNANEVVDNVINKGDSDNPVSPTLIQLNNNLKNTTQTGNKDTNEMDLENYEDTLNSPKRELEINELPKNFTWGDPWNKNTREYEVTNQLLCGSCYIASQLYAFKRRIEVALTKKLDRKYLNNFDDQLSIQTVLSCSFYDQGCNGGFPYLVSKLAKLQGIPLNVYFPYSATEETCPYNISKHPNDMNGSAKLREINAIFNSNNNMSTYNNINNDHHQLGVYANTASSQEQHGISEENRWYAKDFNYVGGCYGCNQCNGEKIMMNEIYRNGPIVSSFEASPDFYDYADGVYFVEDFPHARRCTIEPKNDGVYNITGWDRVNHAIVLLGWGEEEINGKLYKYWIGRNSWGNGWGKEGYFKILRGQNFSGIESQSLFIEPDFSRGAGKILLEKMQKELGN
Regarding `CC(=O)c1ccc(N(CN2C(=O)c3ccc(Br)cc3C2=O)C(C)=O)cc1`, the “% Inhibition @ 10 uM” value was 14.4%.
The same measure for `CCCOc1ccc(S(=O)(=O)NCc2ccc3c(c2)OCO3)cc1`: -6.39%; for `O=C(COc1ccccc1)Nc1ccc(F)cc1`: 3.74%; for `COc1ccc(S(=O)(=O)NCc2ccc(C(=O)N3CCc4ccccc4C3)cc2)cc1`: -1.76%.
As for `Cc1ccc(C)c(NC(=O)c2ccco2)c1`, the “% Inhibition @ 10 uM” value is -9.82%.
The same measure for `O=C1CC(c2ccccc2)CC(=O)C1=CNc1ccc(Br)cc1` (stereo not drawn): -4.61%.
The same measure for `CC(C)(C)c1ccc2c(c1)C1c3ccc(C(C)(C)C)cc3C2C2C(=O)N(c3ccc(Oc4ccc(Br)cc4)cc3)C(=O)C12` (stereo not drawn): -3.38%.
For the compound `CCCN(c1ccccc1C)S(=O)(=O)c1ccc(Cl)cc1`, the “% Inhibition @ 10 uM” value is 3.61%.
The same measure for `CCOC(=O)N1CCC(N2Cc3cccc(C(=O)NC(C)c4ccc5c(c4)OCCO5)c3C2=O)CC1` (stereo not drawn): 24.6%; for `COc1ccc(-n2nc3c(N4CCCC(C(=O)NCc5ccccn5)C4)nnc(C)c3c2C)cc1` (stereo not drawn): -2.87%; for `CC(C)C[C@H](NC(=O)c1cc(-c2ccco2)c(Cl)s1)C(=O)NCC#N`: -1.82%.
Consider `CCOC(=O)c1cc(-c2ccc(F)cc2)n(CC(=O)Nc2cccnc2)c1C`, for which the “% Inhibition @ 10 uM” value was -1.88%.
Regarding `Oc1cccc(CN2CCN(c3cccc(C(F)(F)F)c3)CC2)c1`, the “% Inhibition @ 10 uM” value is reported as -6.47%.
Take `O=C1NC(=O)C2(COC3(CCCC3)OC2)S1`: the “% Inhibition @ 10 uM” value is listed as -5.68%.
`O=C(Nc1cnc2ccccc2c1)N1CCCCCC1`: the “% Inhibition @ 10 uM” value is -3.33%.
For `O=S(=O)(c1ccc(Cl)cc1)n1c(COc2ccc(Cl)cc2Cl)nc2ccccc21`, the “% Inhibition @ 10 uM” value is -1.74%.
The same measure for `O=C(CSc1nc2ccccc2[nH]1)c1cccc([N+](=O)[O-])c1`: 4.89%.
Take `Cc1ccc(OCC(=O)O/N=C(\N)Cc2cccs2)c(Br)c1`: the “% Inhibition @ 10 uM” value came out at 2.03%.
The same measure for `COc1ccc(C(=O)Nc2ccccc2)cc1N`: -0.771%.
As for `Cc1ccc2oc(-c3ccccc3)c/c(=N\CCN(C)C)c2c1`, the “% Inhibition @ 10 uM” value worked out at 3.87%.
As to `COc1cc(S(=O)(=O)n2cnc3cc(C)c(C)cc32)ccc1Cl`, the “% Inhibition @ 10 uM” value amounted to 3.15%.
Turning to `CC(=O)c1ccc(NC(=O)c2cccc(F)c2)cc1`, the “% Inhibition @ 10 uM” value is -1.57%.
Consider `O=C(O)c1cc(-c2ccc(Br)cc2)nc2ccccc12`, for which the “% Inhibition @ 10 uM” value was -0.807%.
In the case of `CN1C(=O)CC(N2CCN(Cc3ccccc3)CC2)C1=O` (stereo not drawn), the “% Inhibition @ 10 uM” value turned out to be 2.38%.
Consider `CC(CC(NC(=O)OCc1ccccc1)C(=O)NCC#N)CC(C)(C)C` (stereo not drawn), for which the “% Inhibition @ 10 uM” value is listed as -1.41%.
Turning to `CC(NC(=O)/C(=C\c1ccco1)NC(=O)c1ccc(C(C)(C)C)cc1)C(=O)O` (stereo not drawn), the “% Inhibition @ 10 uM” value is -9.6%.
The same measure for `C=CC[C@@]1(C)C(=O)CC[C@@]23COC[C@@H]2CCC[C@@H]31`: -0.988%; for `Clc1ccc(-c2nn3c(-c4ccncc4)nnc3c3ccccc23)cc1`: -1.35%.
`CN(CCc1ccccc1)Cc1c[nH]c2ccccc12`: the “% Inhibition @ 10 uM” value is -2.34%.
In the case of `CCOc1ccc2nc(N3C(=O)c4cccc5cccc(c45)C3=O)sc2c1`, the “% Inhibition @ 10 uM” value is given as 5.55%.
For `CCCn1c(=O)c2sccc2n2c(CCCC(=O)N3CCN(C(=O)c4ccco4)CC3)nnc12`, the “% Inhibition @ 10 uM” value is -2.44%.
The same measure for `CCOc1ccccc1C(=O)Nc1ccc(C)c(O)c1`: 0.632%; for `CC1CC(C)CN(S(=O)(=O)c2ccc(-n3cccn3)cc2)C1` (stereo not drawn): 6.91%.
Regarding `O=C(CCn1nc(-c2ccc(Cl)cc2)ccc1=O)NCCN1CCOCC1`, the “% Inhibition @ 10 uM” value is reported as 4.81%.
The same measure for `Cc1ccc(S(=O)(=O)c2nc(-c3cccc(Cl)c3)oc2N2CCOCC2)cc1`: 1.57%.
The same measure for `Cc1c(C)n(CC(O)CN2CCCCC2)c2ccccc12` (stereo not drawn): -5.06%; for `COc1ccc(OC)c(C2C=C(c3ccc(C(C)C)cc3)Nc3ncnn32)c1` (stereo not drawn): 1.86%.
The same measure for `CCOC(=O)N1CCC(N2CCN(c3ccc(Cl)cc3)CC2)CC1`: -3.6%; for `Cc1ccc(S(=O)(=O)c2nnn3c2nc(NCc2ccccc2)c2ccccc23)cc1C`: -5.07%.
For `Cc1cccc(NC(=O)CCCN2C(=O)c3ccccc3C2=O)n1`, the “% Inhibition @ 10 uM” value is on record as -1.82%.
The same measure for `O=C(Nc1ccccc1)C1C(=O)N(c2ccccc2)c2ccccc21` (stereo not drawn): -1.46%.
The same measure for `CCn1cc(C2N3CC4(C(C)C)CN2CC(C(C)C)(C3)C4=O)c2ccccc21` (stereo not drawn): 2.05%; for `COc1ccc(N(CC(=O)Nc2cc(Cl)ccc2C)S(C)(=O)=O)cc1OC`: -1.04%; for `CCCN1CCC(NC2CCCCCC2)CC1`: 2.99%.
The same measure for `C=CCn1c(N2CCOCC2)nc2ccccc21`: -1.11%; for `CC(C)CC(NC(=O)OCc1ccccc1)C(=O)NC(CCc1ccccc1)C1OCCO1` (stereo not drawn): -3.97%; for `CC1CCN(C(=O)CSc2nc3ccccc3[nH]2)CC1`: -4.77%.
Regarding `CC(C)Cn1c(CNC(=O)c2ccc(Cl)cc2)nc2ccccc21`, the “% Inhibition @ 10 uM” value is recorded as -5.67%.
The same measure for `COc1ccc(NC(=O)Cn2nc(C(F)(F)F)cc2C2CC2)cc1Cl`: -1.88%; for `CCCN(CCC)S(=O)(=O)c1ccc(C(=O)Nc2sc3c(c2C(=O)OCC)CCCC3)cc1`: -4.27%.
The same measure for `C1CNC(NCC23CC4CC(CC(C4)C2)C3)=N1`: -1.29%.
